Results reported in US20140286898A1 (Amgen, published 2014).

T1: CD25 (IL-2Rα) on the surface of activated T cells (UniProt P01589 22-272, limits assumed)
T1 construct: whole, on cells; also called cell surface CD25
T1 sequence (looked up): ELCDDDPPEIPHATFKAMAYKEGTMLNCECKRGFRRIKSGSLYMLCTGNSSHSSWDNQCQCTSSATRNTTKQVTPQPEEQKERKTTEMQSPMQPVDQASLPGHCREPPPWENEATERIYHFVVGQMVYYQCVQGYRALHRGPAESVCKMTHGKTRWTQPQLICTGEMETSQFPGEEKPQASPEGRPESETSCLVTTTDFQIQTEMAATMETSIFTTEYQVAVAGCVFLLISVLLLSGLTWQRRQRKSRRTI

B1: Fc.N88D IgG1Fc(N297G_delK)::G4S::huIL-2(N88D, C125A) (Fc fusion)
chain: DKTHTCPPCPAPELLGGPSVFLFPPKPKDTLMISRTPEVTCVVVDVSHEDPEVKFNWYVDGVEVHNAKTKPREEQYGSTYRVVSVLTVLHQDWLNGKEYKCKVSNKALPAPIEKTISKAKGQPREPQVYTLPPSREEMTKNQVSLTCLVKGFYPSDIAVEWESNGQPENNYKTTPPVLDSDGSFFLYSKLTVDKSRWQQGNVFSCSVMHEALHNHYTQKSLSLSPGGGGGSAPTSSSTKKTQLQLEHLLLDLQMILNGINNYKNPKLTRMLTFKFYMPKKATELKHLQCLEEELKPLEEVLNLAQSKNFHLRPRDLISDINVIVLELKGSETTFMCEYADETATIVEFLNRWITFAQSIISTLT
notes: Fc homodimer bearing two IL-2 mutein domains
B2: Fc.V91K IgG1Fc(N297G_delK)::G4S::huIL-2(V91K, C125A) (Fc fusion)
chain: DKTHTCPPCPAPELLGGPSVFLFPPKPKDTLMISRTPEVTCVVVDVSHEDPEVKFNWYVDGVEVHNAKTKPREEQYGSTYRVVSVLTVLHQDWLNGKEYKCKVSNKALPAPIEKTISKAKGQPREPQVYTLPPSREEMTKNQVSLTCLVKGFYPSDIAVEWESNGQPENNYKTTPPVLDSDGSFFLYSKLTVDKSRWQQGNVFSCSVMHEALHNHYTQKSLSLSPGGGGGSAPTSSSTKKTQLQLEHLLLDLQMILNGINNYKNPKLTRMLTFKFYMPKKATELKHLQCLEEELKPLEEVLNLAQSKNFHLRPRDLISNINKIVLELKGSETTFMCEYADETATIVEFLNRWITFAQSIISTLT
notes: as for B1

Biological target: T1, CD25 (IL-2Rα) on the surface of …
Assay: flow cytometry; activated T cells pulsed with 400 pM Fc.IL-2, stained with anti-human IgG-FITC and anti-CD25-APC

Row | Binder | binding result
1 | B1 | binds
2 | B2 | binds
